Results on 109 compounds are retold here after PubChem BioAssay AID488969 (Vanderbilt High Throughput Screening Facility, 2010).

In all, about 110,000 compounds were measured (“z-score”: median about -0.1, highest 2% from about 2 on). Some of the results follow. Calls of active or inactive are those of the source.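 How the source made its calls: active means z-score in the third read window above 3 or below -3; inactive means the rest.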

This experiment addresses Metabotropic glutamate receptor 8 (Rattus norvegicus) (UniProt P70579). Description: rat mGluR8 modulators via GIRK flux, primary screen, cell-based, thallium flux, HTS (AID 488969). The settings on record: HEK293 rat mGluR8, GIRK (G protein-gated inwardly rectifying potassium channel) thallium flux, FluoZin2; at 10 µM; stronger effect = higher value; submaximal glutamate (EC20) added with thallium.
UniProt P70579, sequence (P70579 whole entry, looked up): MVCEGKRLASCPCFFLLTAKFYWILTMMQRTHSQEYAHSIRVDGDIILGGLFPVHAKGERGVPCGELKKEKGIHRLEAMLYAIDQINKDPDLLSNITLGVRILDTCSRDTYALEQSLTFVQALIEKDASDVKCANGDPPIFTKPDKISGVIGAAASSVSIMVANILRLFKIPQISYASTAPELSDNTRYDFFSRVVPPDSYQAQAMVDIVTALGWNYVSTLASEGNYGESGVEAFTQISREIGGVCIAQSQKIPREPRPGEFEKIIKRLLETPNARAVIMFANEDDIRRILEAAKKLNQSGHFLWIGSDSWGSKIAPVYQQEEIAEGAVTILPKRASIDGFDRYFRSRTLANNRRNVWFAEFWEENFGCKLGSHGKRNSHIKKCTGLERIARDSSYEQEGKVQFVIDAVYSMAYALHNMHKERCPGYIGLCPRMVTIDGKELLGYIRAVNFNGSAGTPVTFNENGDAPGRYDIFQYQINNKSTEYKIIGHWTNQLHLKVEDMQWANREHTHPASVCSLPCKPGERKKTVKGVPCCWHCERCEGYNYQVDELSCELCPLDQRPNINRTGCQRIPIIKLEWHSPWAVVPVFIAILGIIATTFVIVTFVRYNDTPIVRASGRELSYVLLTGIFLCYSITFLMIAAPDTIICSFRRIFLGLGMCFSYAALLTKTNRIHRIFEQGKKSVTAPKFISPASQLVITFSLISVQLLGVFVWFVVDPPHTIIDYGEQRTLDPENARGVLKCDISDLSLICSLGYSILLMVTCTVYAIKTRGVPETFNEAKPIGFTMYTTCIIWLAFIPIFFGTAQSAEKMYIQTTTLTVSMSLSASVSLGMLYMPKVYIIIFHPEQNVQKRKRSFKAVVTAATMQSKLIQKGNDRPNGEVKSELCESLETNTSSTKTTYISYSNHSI
For `Nc1nc(SCC(=O)NCc2ccccc2)n[nH]1`, the z-score worked out at 0.225.
Regarding `O=c1c2cc(Br)ccc2nc(-c2cccc(C(F)(F)F)c2)n1O`, the z-score is active: 10.5.
`Cc1ccc(-c2nc3ncccn3c2NC2CCCCC2)o1`: the z-score was -0.306.
With `CCNC(=S)N(Cc1c(C)noc1C)c1ccccc1` the figure was 0.173; with `Cn1c(SCc2ccccc2)nnc1-c1ccc2c(c1)OCO2`, -0.0264.
Under `Cc1ccc(S(=O)(=O)N2C(=O)CCC2C(=O)N2CCN(C)CC2)cc1` (centres undefined) stands -0.203.
With `CCOC(=O)c1c(NC(=O)/C=C/c2ccco2)sc(C)c1C` the figure was 0.569; with `COc1cccc(CNc2ccc(N3CCCCC3)cc2)c1OC`, -0.157.
`CCc1ccccc1OCCCOc1ccc(OC)cc1`: the z-score is -0.0124.
`COc1cc(NC(=O)Cn2ncc3c2-c2ccccc2OC3)cc(OC)c1OC` registered a z-score of -0.0375.
`Cc1ccccc1CN(c1ccc(C(=O)Nc2cccnc2)cc1)S(C)(=O)=O` came in with a z-score of -0.532.
`Cc1ccc(C)c(S(=O)(=O)ON2C(=O)c3ccccc3C2=O)c1` gave a z-score of 0.0644.
The compound `Cc1cc(NS(=O)(=O)c2ccc(NC(=O)c3ccco3)cc2)nc(C)n1` returned a z-score of 0.236.
Regarding `COc1ccc(C(CC(=O)NC(C)(C)C)n2cccc2)cc1` (centres undefined), the z-score was -0.373.
Compound `COc1ccc(S(=O)(=O)N(n2c(C)nnc2-n2nc(C)cc2C)S(=O)(=O)c2ccc(OC)cc2)cc1` showed a z-score of 0.354.
With `CC(C)(C)N1CC(c2nc3ccccc3n2CCOc2ccccc2)CC1=O` (centres undefined) the figure was -0.595.
In turn, `COc1ccc(C2N(c3ccc(OC)cc3)C(=S)N3CCCN23)cc1` (centres undefined) gave a z-score of 0.0146.
`COc1cc(NC(=O)CSc2nc3ccccc3cc2C)c(C(=O)O)cc1OC` yielded a z-score of -0.123.
`Cc1nc(-c2ccccc2)cs1` came in with a z-score of -0.227.
Under `COc1c(S(=O)(=O)n2nc(C)cc2C)ccc(Cl)c1Cl` stands -0.668; under `COc1cc(C)ccc1OCCCOc1ccccc1Br`, -0.0417.
Turning to `O=C(c1ccco1)N1CCN(c2ccccc2F)CC1`, the z-score turned out to be 0.221.
Consider `CCc1nnc(NC(=O)CSc2nnc(-c3ccco3)n2CC)s1`, for which the z-score was -1.25.
Compound `Cc1nnc(SCCC(=O)Nc2nc(-c3ccccc3)ns2)s1` registered a z-score of 0.204.
`CNC(=S)N(Cc1cccs1)Cc1cc2cc(OC)c(OC)cc2[nH]c1=O` showed a z-score of 0.0596.
Turning to `COC(=O)C(C)Sc1nnc(Cc2cc(=O)[nH]c(=O)[nH]2)n1-c1ccc(OC)cc1` (centres undefined), the z-score came to 0.194.
For the compound `O=C(Nc1ccc2oc(-c3ccncc3)nc2c1)c1c(F)c(F)c(F)c(F)c1F`, the z-score was active: 3.39.
Consider `O=C(CC1c2ccccc2Oc2ccccc21)Nc1ccccc1F`, for which the z-score stood at 0.0431.
Compound `CCS(=O)(=O)N1CCC(C(=O)NCc2ccccc2OC)CC1` displayed a z-score of -0.025.
With `CNC(=O)OC(C)CNS(=O)(=O)c1ccc(C)cc1` (centres undefined) the figure was 0.0108.
`Cn1cc(Br)cc2nc(C(F)(F)F)nc1-2` had a z-score of 0.971.
Under `CCN(CC)S(=O)(=O)c1ccc(N2CCOCC2)c(NC(=O)c2cccc3ccccc23)c1` stands -0.482; under `CCN(CC)Cc1nc2c(c(=O)[nH]1)C1(CCCCC1)Cc1ccccc1-2`, -0.249.
Under `CC(C)c1ccc(S(=O)(=O)c2cn(Cc3ccc(F)cc3)c3cc4c(cc3c2=O)OCO4)cc1` stands -0.241; under `CCCc1nc(SCC(=O)N2CCN(c3ccccc3)CC2)c2c(=O)n(C)c(=O)n(C)c2n1`, 2.39; under `Cc1cccc(OCCn2c(-c3ccco3)nc3ccccc32)c1`, -0.129.
Compound `Cc1cc(C)cc(C(=O)Oc2coc(CSc3nnc(NC(=O)C4CC4)s3)cc2=O)c1` registered a z-score of 0.0207.
Under `O=C(N/C(=N\O)c1ccccc1)Nc1ccc(Cl)cc1` stands 2.01; under `Cc1nn(CCCC(=O)Nc2sc3c(c2C#N)CCC3)c(C)c1[N+](=O)[O-]`, -0.234; under `COc1ccc(C(=O)NCc2nnc(SCC(=O)N3CCCCC3)o2)cc1OC`, 0.406.
On to `Cc1ccc(C(=O)COC(=O)CCN2C(=O)C3C4CC(C(Br)C4Br)C3C2=O)cc1` (centres undefined), for which the z-score is -0.128.
Take `Cc1[nH]c2ccc(C(=O)OCCN(C)C)cc2c1C`: the z-score was determined as 0.546.
Under `CC(C)COc1ccc(C(=O)OCCN2CCOCC2)cc1` stands 0.66.
`O=C(NNC(=S)Nc1ccc(Cl)cc1Cl)C1CC1` showed a z-score of -0.111.
`COc1cccc(NC(=O)C2CC(=O)N(C)C(=Nc3cccc(F)c3)S2)c1` (centres undefined) registered a z-score of -0.232.
With `COC(=O)[C@H]1C2CCC(C(=O)OC)(CC2)[C@H]1C(=O)OC` the figure was -0.0401; with `Cc1c2cnn(CC(=O)Nc3cccc(C(F)(F)F)c3)c(=O)c2c(C)n1Cc1ccccc1F`, 0.163; with `CCc1cc2cc(C(=O)Nc3ccc(C)cc3)sc2s1`, -0.00392.
For the compound `Cc1ccc(-n2c(CNc3ccc(F)cc3)nnc2SCC(N)=O)cc1`, the z-score stood at 0.202.
Compound `CCCCNC(=O)COC(=O)c1cc(Br)ccc1Cl` had a z-score of -0.148.
As to `COc1ccc(Cl)cc1NC(=O)CSc1nncn1-c1cccnc1`, the z-score was -0.487.
As for `CSc1ncc(Cl)c(C(=O)Nc2ccc(S(=O)(=O)N3CCOCC3)cc2)n1`, the z-score is 0.162.
Under `O=C(c1ccc(Cl)c([N+](=O)[O-])c1)N1CCN(c2ccccn2)CC1` stands -0.0404.
In turn, `O=C(CSc1ccc2nnc(-c3ccncc3)n2n1)NCc1ccco1` registered a z-score of -0.149.
`COC(=O)C1=C(C)OC(N)=C(C#N)C1c1ccc(OC)c(CSc2ccccn2)c1` (centres undefined) registered a z-score of -0.499.
Compound `CC(C)(C)c1ccc(OCC(=O)NCc2ccco2)c(Br)c1` showed a z-score of 0.144.
As for `Cc1ccc(-c2cc(C(=O)Nc3nn[nH]n3)c3ccccc3n2)cc1`, the z-score was -0.104.
With `C=C(C)COc1ccc(-c2n[nH]c(C)c2Oc2ccccc2OC)c(O)c1` the figure was -0.505; with `O=C(ON=C1CCN(S(=O)(=O)c2ccccc2)CC1)c1ccc(Cl)cc1`, 0.309; with `Cc1ccsc1/C=N/NC(=O)C1CC(=O)N(c2ccccc2)C1` (centres undefined), 0.243.
Under `COc1cc(SC)ccc1C(=O)NCc1ccccc1` stands -0.277.
With `N#CC1=C(N)NC(SCC(=O)Nc2ccccc2)=C(C#N)C12CCCCC2` the figure was -0.252; with `CS(=O)(=O)NCc1nnc(SCC(=O)NC2CCCCC2)n1-c1ccc(F)cc1`, 0.263; with `CS(=O)(=O)NCCOc1ccc(S(=O)(=O)N2CCCc3ccccc32)cc1`, -0.169.
On to `Cc1csc2nc(CSc3nc4ccccc4o3)c(Br)n12`, for which the z-score is -0.249.
With `COc1ccccc1N1CCN(C(=O)C2CCCO2)CC1` (centres undefined) the figure was -0.173.
In the case of `O=C1N/C(=N/S(=O)(=O)c2ccccc2)S/C1=C/c1cccnc1`, the z-score was -1.23.
In turn, `NS(=O)(=O)c1ccc(CCNC(=O)C2CCCN(S(=O)(=O)c3cccnc3)C2)cc1` (centres undefined) gave a z-score of 1.08.
`CC(=O)c1cccc(S(=O)(=O)NCC2CCCCC2)c1` registered a z-score of 0.0227.
With `NC1=NC2(CCCCC2)N(c2cccc(Cl)c2)C(N)=N1`, the z-score is 0.453.
For `O=C(CCS(=O)(=O)c1cccc2nsnc12)NC1CCCCCC1`, the z-score is -0.156.
With `C=CCNC(=O)COc1ccc(S(=O)(=O)NC2CCCCC2)cc1`, the z-score is -0.116.
`Cc1ccccc1N=C1NC(=O)CC(c2ccccc2)S1` (centres undefined) returned a z-score of -0.139.
`Clc1ccc(-n2ncc3c(NCc4ccco4)ncnc32)cc1` registered a z-score of 0.653.
`COc1ccc(-n2c3nc4ccccc4nc3c3c(=N)oc(C)nc32)cc1` yielded a z-score of -0.388.
`COc1cccc(CNC(=O)C2CCN(S(=O)(=O)c3ccccc3)CC2)c1`: the z-score was -0.0818.
In the case of `CC(=O)OCc1c(C(F)(F)F)nn(C)c1Sc1ccccc1`, the z-score was -0.0783.
`CC1(C)Cc2nc3sc4c(=O)n(Cc5ccccc5)cnc4c3cc2CS1`: the z-score is -0.805.
The compound `C/C(=N\OCC(=O)Nn1c(C)nc2ccccc2c1=O)c1ccccc1` registered a z-score of -0.337.
The compound `Cc1ccc(Cn2nnnc2CN2CCC(NC(=O)c3ccc(Br)cc3)CC2)cc1` returned a z-score of -0.256.
In the case of `O=C(CN1CCCCC1)Nc1ccccc1`, the z-score was found to be 0.0411.
The compound `CCn1c(SCC(=O)Nc2ccc(NC(=O)c3ccco3)cc2)nnc1-c1cccs1` registered a z-score of -0.0846.
With `CC(C)(C)C(=O)C[n+]1ccc(C(N)=O)cc1`, the z-score came to 0.0103.
Under `CCOC(=O)N1CCN(C(=O)C2CC(=O)N(c3ccc(OC)cc3)C2c2ccc(OC)cc2)CC1` (centres undefined) stands -0.0821; under `COc1ccc(-c2nc3n(c2Br)CCC3)cc1`, 0.254; under `COc1cc(NC(=O)COC(=O)/C=C/c2c(C)nn(-c3ccc(F)cc3)c2Cl)cc(OC)c1`, -0.0533.
`COC(=O)c1sccc1NC(=O)c1ccncc1` showed a z-score of -0.749.
With `O=C(O)C1CCCCC1C(=O)Nc1nc(-c2cccs2)cs1` (centres undefined) the figure was -1.12; with `CCn1cc(/C=N/NC(=O)c2ccc3c(c2)OCO3)c(C)n1`, -0.156.
In turn, `O=C(NS(=O)(=O)c1ccc(NC(=O)C2CCCO2)cc1)c1ccccc1` (centres undefined) yielded a z-score of 0.199.
On to `C(/C=C/c1ccco1)=N/N1CCN(c2ccccc2)CC1`, for which the z-score was -1.12.
In the case of `CCn1c(SCC(=O)Nc2sc3c(c2C#N)CCCC3)nnc1-c1ccco1`, the z-score was -0.179.
`CC(C)c1ccc(N2C(=O)CSC23C(=O)N2CCCc4cccc3c42)cc1` (centres undefined) came in with a z-score of -0.833.
Take `CCOC(=O)/C=C(\C)Sc1cc(=O)oc2ccccc12`: the z-score is -1.34.
Compound `CSC(=NNC(=O)c1ccccc1O)SC` registered a z-score of -0.162.
`Cn1c(OCc2ccc3c(c2)OCO3)nc2c1c(=O)n(Cc1cccc(Cl)c1)c(=O)n2C` displayed a z-score of -0.424.
With `CCCCCNC(=O)c1ccc2c(=O)[nH]c3c(C(=O)NCC4CCCO4)sc(=S)n3c2c1` (centres undefined), the z-score was active: -3.38.
Regarding `Cc1cccn2c(=O)c3cc(C#N)c(=NC(=O)c4ccncc4)n(CCCOC(C)C)c3nc12`, the z-score worked out at 0.000675.
With `COc1cccc2cc(C(C)N(CCCN3CCOCC3)C(=O)Nc3ccccc3)oc12` (centres undefined) the figure was -1.53.
In the case of `COc1ccc(C(=O)OCC(=O)Nc2ccc(Cl)c(C(F)(F)F)c2)c(OC)c1OC`, the z-score came out at 0.41.
Under `CCOC(=O)/C(=N\Nc1cc(Cl)ccc1Cl)N1CCN(C)CC1` stands -0.132; under `CCSc1nnc(NC(=O)CSc2nnc(Cc3cccn3C)n2-c2ccc(F)cc2)s1`, 0.265.
For `CCC(=O)N1CCc2cc(S(=O)(=O)NCCC(=O)NC3CCCc4ccccc43)ccc21` (centres undefined), the z-score stood at 0.288.
`COc1ccc(Cc2nnc(N/N=C/c3ccc(O)cc3)[nH]c2=O)cc1OC` registered a z-score of -0.41.
The compound `CCN1C(=O)c2cccc3c(NC(=O)c4ccccc4)ccc1c23` showed a z-score of -0.427.
`COc1cc(C=Nc2cccc([N+](=O)[O-])c2C)ccc1OC(C)=O`: the z-score was -0.417.
With `CCCOc1ccc(-c2c(C(=O)N/N=C/c3ccc(OCC)cc3)nnn2-c2nonc2N)cc1` the figure was -0.25.
`Cc1nc2sc(C(c3ccc(F)cc3)N3CCN(C(=O)c4ccco4)CC3)c(O)n2n1` (centres undefined) displayed a z-score of -0.218.
Take `CCOc1cccc(SCc2noc(C(=O)NC(C)C)c2C(=O)O)c1`: the z-score was -0.448.
